Experimental data as given in PubChem BioAssay AID1745853 (National Center for Advancing Translational Sciences (NCATS), 2022).
Some of the results follow. These are further read-outs of the screen, such as a control signal, another cell line or another target. No call is given for them.

Assays:
Assay in all cases: Primary Screen for Target Class Profiling of Small Molecule Inhibitors of Methyltransferases
[1] = molecular target: Glycine N-methyltransferase (Homo sapiens) (UniProt Q14749); conditions: purified enzyme, MTase-Glo SAH luminescence; measured here: GNMT inhibition; at 40 µM; stronger effect = lower value
Description: (§1) PI: Matthew D. Hall Ph.D. and Quinlin M. Hanson Ph.D.
(§2) National Center for Advancing Translational Sciences (NCATS)
(§3) National Institute of Health (NIH), Rockville, MD
(§4) Target class profiling (TCP) is a chemical biology approach amenable to investigating understudied biological targets. TCP is achieved by developing a generalizable assay platform and applying it to screen a curated set of compound libraries against representative members of a target class. Small molecule methyltransferases (SMMTase) are a subclass of methyltransferase that act on metabolites to modulate signaling pathways, metabolize xenobiotics, or balance the available methyl pool. We screened four curated libraries totaling 27,574 unique compounds against the SMMTases nicotinamide N-methyltransferase (NNMT), phenylethanolamine N-methyltransferase (PNMT), histamine N-methyltransferase (HNMT), glycine N-methyltransferase (GNMT), catechol O-methyltransferase (COMT), and guanidinoacetate N-methyltransferase (GAMT). The data generated by this TCP can be leveraged for informed tool molecule development. For example, in the associated publication we identified a chemotype of HNMT-selective inhibitors. Additionally, we identified a putative SMMTase-selective inhibitor with potential as a tool molecule for studying broader methyltransferase biology.
(§5) High-through put screening assays were developed at the National Center for Advancing Translational Science (NCATS) for the enzymes NNMT, PNMT, HNMT, GNMT, COMT, and GAMT. Enzymatic activity was measured as a function of SAM cofactor conversion using the MTase Glo kit (Promega) for all enzymes. All assays were performed in 1536-well format with substrates and SAM concentrations at KM values. Enzyme concentration and assay timing were optimized for 10-20% SAM conversion. Initial screening of 27,574 compounds was done as single-point assays using the highest compound concentration (40 uM). […] These compounds were replated in 11-point dose response and assayed against NNMT, PNMT, HNMT, GNMT, COMT, GAMT, and a counter-assay. The IC50 and efficacy (maximal response) values were determined for each dose-response curve. These values are also accounted for in the area under the curve (AUC) values.
(§6) PROTOCOL TABLE (as described by Inglese J, Shamu CE and Guy RK. 2007)
(§7) SEQUENCE No. (e.g., 1, 2, 3, etc.); […] (e.g., Cells, Incubation, Reagent, etc.); VALUE; DESCRIPTION.
(§8) 1; Reagent; 2 uL; SMMTase Enzyme (2x) in reaction buffer, columns 1- 48.
(§9) 2; Reagent; 1 uL; SAM (4x) in reaction buffer, columns 1-48.
(§10) 3; Controls; 23 nL; DMSO in column 4; sinefungin in DMSO (0 uM - 40 uM) in 7-point 1:2 dilution series (n = 2) in column 2.
(§11) 4; Compounds; 23 nL; Columns 5-48.
(§12) 5; Reagent; 1 uL; Substrate (4x) in reaction buffer, columns 2-48.
(§13) 6; Time; 20-30 min; Incubation.
(§14) 7; Reagent; 1 uL; MTase-Glo reagent (5X), columns 1-48.
(§15) 8; Time; 30 min; Incubation.
(§16) 9; Reagent; 5 uL; MTase-Glo Detection reagent, columns 1-48.
(§17) 10; Time; 30 min; Incubation, luminescence evolution.
(§18) 11; Detection; Luminescence; ViewLux uHTS Microplate Imager (PerkinElmer).
(§19) NOTES (numbers refer to Sequence numbers above)
(§20) 1, 2, 5. White Medium Binding Greiner 1536-well plates (Cat #789175-F, Greiner Bio-One, Monroe, NC); Reaction buffer: 50 mM Tris, pH 8.0, 3 mM MgCl2, 1 mM EDTA, 50 mM NaCl, 1 mM DTT, and 0.1 mg/mL BSA. Evaporation was prevented by covering assay plates with metal lids containing holes to allow gas diffusion.
(§21) 1. Six SMMTase were profiled: HNMT, GNMT, PNMT, COMT, NNMT, GAMT
(§22) 5. The corresponding substrate was used for each enzyme: HNMT - 5.3 uM Histamine; GNMT - >500 uM Glycine; PNMT - 16.2 uM Norephinephrine; COMT - 13.7 uM Norephinephrine; NNMT - 3.8 uM Nicotinamide; GAMT - 2.5 uM Guanidinoacetate.6, 8, 10. Room temperature
(§23) 6. Final reaction conditions: 10 nM COMT, 5 uM SAM, 15 uM norepinephrine, 50 mM Tris, pH 8.0, 3 mM MgCl2, 1 mM EDTA, 50 mM NaCl, 1 mM DTT, and 0.1 mg/mL BSA; refer to tables 2 and S1 for specific timing.
8. […]

[2] = molecular target: Guanidinoacetate N-methyltransferase (Homo sapiens) (UniProt Q14353); conditions: purified enzyme, MTase-Glo SAH luminescence; measured here: GAMT inhibition; at 40 µM; stronger effect = lower value
Description: as §1, §2, §3, §4, §5, §6, §7, §8, §9, §10, §11, §12, §13, §14, §15, §16, §17, §18, §19, §20, §21, §22, §23
8. […]

[3] = molecular target: Histamine N-methyltransferase (Homo sapiens) (UniProt P50135); conditions: purified enzyme, MTase-Glo SAH luminescence; measured here: HNMT inhibition; at 40 µM; stronger effect = lower value
Description: as §1, §2, §3, §4, §5, §6, §7, §8, §9, §10, §11, §12, §13, §14, §15, §16, §17, §18, §19, §20, §21, §22, §23
8. […]

[4] = molecular target: Nicotinamide N-methyltransferase (Homo sapiens) (UniProt P40261); conditions: purified enzyme, MTase-Glo SAH luminescence; measured here: NNMT inhibition; at 40 µM; stronger effect = lower value
Description: as §1, §2, §3, §4, §5, §6, §7, §8, §9, §10, §11, §12, §13, §14, §15, §16, §17, §18, §19, §20, §21, §22, §23
8. […]

[5] = molecular target: Phenylethanolamine N-methyltransferase (Homo sapiens) (UniProt P11086); conditions: purified enzyme, MTase-Glo SAH luminescence; measured here: PNMT inhibition; at 40 µM; stronger effect = lower value
Description: as §1, §2, §3, §4, §5, §6, §7, §8, §9, §10, §11, §12, §13, §14, §15, §16, §17, §18, §19, §20, §21, §22, §23
8. […]
% is scaled to controls: 0 for no effect and ±100 for the full control effect.

| SMILES | activity change, negative = inhibition [1] | activity change, negative = inhibition [2] | activity change, negative = inhibition [3] | activity change, negative = inhibition [4] | activity change, negative = inhibition [5] |
| --- | --- | --- | --- | --- | --- |
| O=c1[nH]c(N2CCc3ccccc3C2)nc2c1CCN(Cc1cccs1)CC2 | 1.78% | 2.17% | 1.41% | 7.93% | -0.505% |
| CN(C)Cc1nnc(C2CC(NC(=O)c3conc3-c3ccccc3)C2)n1C (configuration not stated) | -5.97% | -7.63% | -3.37% | -9.58% | -8.3% |
| O=C(Cn1nc2n(CCc3ccccc3)c(=O)c3ccccc3n2c1=O)c1ccc(F)cc1 | -1.78% | 1.98% | 4.38% | -5.75% | 1.87% |
| COc1ccccc1CNC(=O)C1(C)Cn2nc(-c3ccccc3)cc2C(=O)N1Cc1ccccc1Cl (configuration not stated) | -1.94% | 0.749% | -5.52% | 0.064% | -9.28% |
| CN1C(=O)c2cc(C(=O)NCCCc3ccccc3)nn2CC1(C)C(=O)NC1CCCCCC1 (configuration not stated) | -0.063% | 4.17% | -3.51% | -2.85% | -1.15% |
| O=C(c1cccnc1)N1CC[C@H](c2nc3ccccc3o2)C1 | -1.55% | 1.79% | 1.06% | -6.28% | 13.1% |
| CC(C)NC(=O)c1ccc2c(=O)n(Cc3ccccc3)c3nn(Cc4ccccc4F)c(=O)n3c2c1 | 7.78% | 0% | 11.2% | 7.75% | 8.46% |
| CCN1CCN(Cc2ccc(NC(=O)c3ccc(C)c(Oc4ccnc5[nH]ccc45)c3)cc2C(F)(F)F)CC1 | -6.06% | 3.18% | -35.9% | -15.5% | -0.872% |
| CCCCNC(=O)Cn1ccc2cc(S(=O)(=O)N3CCCCC3)ccc21 | 1.5% | 0.38% | -5.45% | 1.28% | -2.31% |
| NCCCCNCCCN | 10.9% | 11.6% | 14.2% | -1.9% | 0.249% |
| CC(c1ccc(-c2ccc(CC(=O)O)cn2)cc1)N1CCCCC1 (configuration not stated) | -5.77% | -10.8% | -9.88% | -15.6% | -11.3% |
| COc1ccc(CNC(=O)c2ccc3c(=O)n(-c4ccc(F)cc4)c4nnc(C)n4c3c2)cc1 | -6.51% | 0% | -3.74% | 3.45% | -4.76% |
| C[C@H](O)[C@@H]1C(=O)N2C(C(=O)O)=C(S[C@@H]3CN[C@H](CNS(N)(=O)=O)C3)[C@@H](C)[C@@H]12 | -12% |  | 1.99% |  |  |
| COC(=O)Nc1ccc(-c2nc(N3CCOCC3)c3cnn(C4CCN(Cc5cccnc5)CC4)c3n2)cc1 | -32.8% | 6.94% | -12.6% | -17.6% | -11.2% |
| CCn1nc2n(c1=O)CCN(Cc1cc(C)ccc1C)C2=O | -0.004% | 0.635% | -0.792% | -1.44% | -1.93% |
